Measurements as given in PubChem BioAssay AID1745845 (National Center for Advancing Translational Sciences (NCATS), 2022).
The campaign covered roughly 360,000 compounds. About 2,600 (0.72%) were called active. The shares of active, inactive and inconclusive entries below differ from those in the screen. Calls follow the shape of the dose curve; as a rule, active = well fitted inhibition curve with a large enough effect; inconclusive = small, poorly fitted or top-dose-only effect; inactive = no such curve, though single readings can be large or run the other way. Where the call is inconclusive, the potency comes from a doubtful curve fit.

Assay: Primary qHTS for Inhibitors of ATXN expression; also: nearly all actives have a fitted effect of over 55% in size
Conditions: HEK-293 ATXN2-luciferase reporter, luminescence, 24 h; activity change, negative = inhibition: at 57 µM (top of the series)
In short: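 ATXN2-luciferase reporter cells (luciferase flanked by upstream and downstream ATXN2 gene portions) were treated 24 h at 37 °C with compounds at up to 57 uM. SteadyGlo luminescence gave expression; GF-AFC fluorescence gave viability.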
% is scaled to controls: 0 for no effect and ±100 for the full control effect; potency is read from the fitted curve at half-maximal effect; tags tell the direction and shape of the fitted curve.

SMILES	activity change, negative = inhibition	Potency
C=CCS/C(=N\n1cnc2ccccc2c1=O)N1CCCCC1	inactive: 36%	–
Cc1nn(Cc2ccc(Cl)c(Cl)c2)c(C)c1NC(=O)c1cc(-c2ccc3c(c2)OCO3)on1	inactive: -35.9%	–
COc1cccc2c(NCc3ccccc3)nc(-n3c(N)nc4ccccc43)nc12	–	active: 27.3 µM
Cc1ccc(C(=O)N2[C@@H]3CN(C)C(=O)[C@@]2(Cc2ccccc2)[C@H]2C(=O)N(Cc4ccccc4)C(=O)[C@@H]32)cc1	inactive: -7.66%	–
COc1ccc(NC(=O)C2c3ccccc3OCC(=O)N2C2CC2)cc1 (centres undefined)	inactive: 1.67%	–
Nc1nccc(Oc2ccc(NC(=O)c3c[nH]cc(-c4ccc(F)cc4)c3=O)cc2F)c1Cl	–	active: 30.6 µM
COc1ccc(C(=O)CC(=O)C(=O)NCCc2cccc(C)c2)cc1	inactive: -19.9%	–
Oc1ccccc1-c1nc2cnccn2c1Nc1ccc(Cl)cc1	–	inconclusive: 35.5 µM [inhibitor, single point]
CCOc1ccc(C(=O)n2cc(C(=O)OC)c3ccccc32)cc1	inactive: 8.12%	–
Clc1ccccc1-c1nc(-c2ccccc2)n[nH]1	inactive: 76.2%	–
Cc1cc(C(=O)NCCc2ccc(Cl)cc2)c2c(C)nn(-c3ccccc3)c2n1	inactive: 3.04%	–
Cc1cc(Br)ccc1SCC(=O)OCC(O)=C(C#N)c1nc2ccccc2[nH]1	–	inconclusive: 35.5 µM [inhibitor, single point]
Cn1nc(C(F)(F)F)c2cc(C(=O)Nc3ccc(C(F)(F)F)cc3)sc21	–	inconclusive: 2.38 µM [inhibitor, partial curve, poor fit]
CCOC(=O)c1[nH]c(C)c(CCC(=O)N2CCN(c3cc(C)ccc3C)CC2)c1C	–	inconclusive: 28.2 µM [inhibitor, single point]
COc1ccccc1-c1nnc(NC(=O)c2ccc(S(=O)(=O)N(C)Cc3ccccc3)cc2)o1	–	inconclusive: 14.1 µM [inhibitor, partial curve]
COC1=Nc2ccccc2N2CCN=C12	inactive: -2.59%	–
Cn1cccc1C(=O)NCCc1ccccc1	–	inconclusive: 22.4 µM [inhibitor, single point]
Cc1ccc(C(=O)Nc2ccc(N3CCN(C(=O)c4cccs4)CC3)cc2)c(Cl)c1	–	inconclusive: 39.8 µM [inhibitor, single point]
Cc1c(CN2CCN(C(=O)C(C)C)CC2)sc2c(N3CCOCC3)nc(-c3cnc(N)nc3)nc12	–	inconclusive: 9.68 µM [inhibitor, partial curve]
Cc1cc(C(=O)OCC(=O)N(C)c2c(N)n(Cc3ccccc3)c(=O)[nH]c2=O)c(C)n1-c1ccccc1	inactive: 8.85%	–
CC1N(C)c2cc(NC(=O)c3ccco3)ccc2C1(C)C (centres undefined)	–	inconclusive: 39.8 µM [inhibitor, single point]
CC(=O)c1cccc(N=Nc2c(-c3ccccc3)[nH]n(-c3ccccc3)c2=O)c1	–	inconclusive: 20 µM [inhibitor, partial curve, poor fit]
O=C(CN1C(=O)NC2(CCCC2)C1=O)Nc1cc(C(F)(F)F)ccc1N1CCCCC1	inactive: -18.4%	–

SMILES	activity change, negative = inhibition	Potency
Cc1c(C)c(C)c2[nH]c(=S)[nH]c2c1C	–	inconclusive: 37.7 µM [inhibitor, partial curve, poor fit]
C/C(=C\C(=O)c1ccc(Br)cc1)NNC(=O)c1ccc(O)cc1	–	inconclusive: 20 µM [inhibitor, single point]
CCOc1ccc(-c2cc(C(=O)O)c3ccccc3n2)cc1	–	inconclusive: 25.1 µM [inhibitor, single point]
O=C(NCc1ccc(F)cc1)C(c1ccccc1)N(C(=O)c1csnn1)c1ccccc1 (centres undefined)	inactive: -5.29%	–
CN(Cc1ccc(Cl)cc1Cl)C(=O)c1cccc(S(=O)(=O)NCc2ccccc2)c1	inactive: -5.3%	–
COc1ccccc1NC(=O)N1CCN(c2nnc(C)c3c(C)n(-c4ccccc4)nc23)CC1	–	inconclusive: 14.1 µM [inhibitor, partial curve, poor fit]
CC1Cc2cc(/C=C3/SC(N4CCC(C(N)=O)CC4)=NC3=O)ccc2O1 (centres undefined)	inactive: -2.46%	–
O=C(Nc1nnc(-c2ccccc2)s1)c1cc(S(=O)(=O)N2CCOCC2)c(Cl)cc1Cl	–	inconclusive: 39.8 µM [inhibitor, single point]
CN(C)S(=O)(=O)c1cccc(C(=O)N(Cc2ccc(F)cc2)Cc2ccco2)c1	inactive: -12.6%	–
C=CCNC(=O)CN(c1ccc(OC)cc1OC)S(C)(=O)=O	–	inconclusive: 28.2 µM [inhibitor, single point]
Nc1cc2c(cc1Cl)-c1ccc([N+](=O)[O-])cc1C2=NO	–	inconclusive: 15.8 µM [inhibitor, partial curve, poor fit]
O=C(C1=C(c2ccccc2)C(=O)c2ccccc2C1=O)c1ccccc1	–	inconclusive: 2.82 µM [inhibitor, full curve, poor fit]
CCCCOc1ccccc1C1CC(=O)Nc2cc(C)c(C)cc21 (centres undefined)	–	inconclusive: 39.8 µM [inhibitor, single point]
C=CC[C@H](CC(=O)N(CCO)Cc1ccccc1)C(=O)N[C@@H](COC(=O)[C@@H](CC=C)CC(=O)OC(C)(C)C)Cc1c[nH]c2ccccc12	–	inconclusive: 31.6 µM [inhibitor, single point]
COc1cccc(CNC(=O)CCn2cnc3ccccc3c2=O)c1	inactive: 6.61%	–
COc1cccc(-c2csc(N3CCN(C(=S)Nc4ccccc4)CC3)n2)c1	inactive: -4.64%	–
Brc1ccc2c(c1)C(c1ccc(N3CCOCC3)cc1)=NNC(c1cccs1)=N2	inactive: -2.01%	–
CCOC(=O)N1C(=O)[C@](c2ccc(Cl)cc2)(C(C)C)N1C(=O)OCC	–	inconclusive: 35.5 µM [inhibitor, single point]
N#CCC(=O)N/N=C/c1cn(Cc2ccc(Cl)c(Cl)c2)c2ccccc12	–	inconclusive: 10 µM [inhibitor, partial curve]
O=C(/C=C/c1cccs1)NC(=S)NNC(=O)c1ccccc1O	–	inconclusive: 12.6 µM [inhibitor, partial curve, poor fit]
O=C(CSc1nc2c([nH]c3ccccc32)c(=O)n1-c1ccccc1F)Nc1cccc(C(F)(F)F)c1	–	inconclusive: 25.1 µM [inhibitor, partial curve, poor fit]
Cc1cc(Oc2ccc(Cl)cc2)nc(-c2ccccn2)n1	–	inconclusive: 39.8 µM [inhibitor, single point]
Cn1c(=O)c2c(nc(NCCc3ccccc3)n2Cc2ccc(F)cc2)n(C)c1=O	–	inconclusive: 25.1 µM [inhibitor, single point]

SMILES	activity change, negative = inhibition	Potency
Cc1cc(O)c(C(C)C)cc1NC(=O)Nc1cccc2ccccc12	–	inconclusive: 39.8 µM [inhibitor, single point]
Cc1ccc(NC(=O)c2nc[nH]c2C(=O)NC2CCN(C(=O)OC(C)(C)C)CC2)cc1	inactive: -3.9%	–
O=C(COc1ccc(Cl)cc1)N1CCN(c2ccc([N+](=O)[O-])c(N3CCCCC3)c2)CC1	inactive: -21.9%	–
Cc1nc(N2CCN(c3ccccn3)CC2)c2c(C)c(C(=O)N3CCN(c4ccccc4F)CC3)sc2n1	inconclusive: -73.5% [inhibitor]	–
COc1ccc(CCNc2oc(Cc3cccc4ccccc34)nc2C#N)cc1OC	–	inconclusive: 20 µM [inhibitor, partial curve, poor fit]
COc1ccc(-c2csc3ncnc(N4CCN(C(=O)c5ccco5)CC4)c23)cc1	–	inconclusive: 39.8 µM [inhibitor, partial curve, poor fit]
Cn1c(=O)c(C#N)c(-c2ccc(F)cc2)c2cc(C(=O)c3cc(Cl)cc(Cl)c3O)cnc21	–	inconclusive: 22.4 µM [inhibitor, partial curve, poor fit]
CC(C)(C)CNC(=O)c1ccc2c(c1)S(=O)(=O)c1cc(Cl)ccc1C2=O	–	inconclusive: 28.2 µM [inhibitor, single point]
CCn1cc(C(=O)N2CCN(c3cccc(Cl)c3)CC2)c(=O)c2cc(S(=O)(=O)N3CCC(C)CC3)ccc21	–	inconclusive: 39.8 µM [inhibitor, single point]
CCN(CC)S(=O)(=O)c1ccc2c(c1)c(=O)c(C(=O)NCCN(C)CCc1ccccc1)cn2C	inactive: -6.56%	–
O=C(NCCCN1CCN(c2cccc(Cl)c2)CC1)c1ccc2nc(Cc3ccccc3)oc2c1	–	inconclusive: 17.8 µM [inhibitor, partial curve]
O=C(Oc1c(Cl)cc(Cl)c2cccnc12)c1cccs1	–	inconclusive: 17.8 µM [inhibitor, single point]
COc1cccc(CNC(=O)Cn2nc(C)c3sc4ccccc4c3c2=O)c1OC	inactive: 3.57%	–
NC(COCc1ccccc1)c1csc(NC(=O)Nc2cccc(C(F)(F)F)c2)n1 (centres undefined)	–	inconclusive: 39.8 µM [inhibitor, single point]
O=C(NC(=S)Nc1ccccc1)c1csnn1	inactive: -4.62%	–
CC(C)C(NC(=O)c1ccc2c(c1)OCO2)C(=O)N/N=C/c1cccs1 (centres undefined)	inactive: 1.19%	–
Cc1ccc2[nH]c(=O)c(CN(CCCN3CCOCC3)C(=O)Nc3cccc(Cl)c3)cc2c1	inactive: -31%	–
CN(Cc1ccc(Cl)s1)C(=O)CCl	–	active: 13.4 µM
COc1ccc(-c2ccc(NS(=O)(=O)c3cc(C)c(C)cc3C)cc2)nn1	–	inconclusive: 39.8 µM [inhibitor, single point]
O=C(O)c1ccc2nc(-c3ccccc3)sc2c1	–	active: 8.91 µM
O=C(CCc1ccccc1)N/N=C\c1cc2c(cc1Br)OCO2	inactive: -3.66%	–
CC1CCN(C(=O)CCc2ccc(Oc3cc([N+](=O)[O-])cc([N+](=O)[O-])c3)cc2)CC1	–	inconclusive: 39.8 µM [inhibitor, single point]
NC(=O)Nc1cc(-c2cccc(F)c2)sc1C(=O)N[C@H]1CCCNC1	–	inconclusive: 0.243 µM [inhibitor, full curve]
